The source gives no read counts; variants with many changes may rest on few reads.
B1: LINE1-mini (parent)
chain: GGCAGAGCUCAACACAGCGUGGCAAAGUGGCUGUGGCUAGACUGCC

Variants of: B1
Test: self-cleavage, relative activity (ratio to wild type); higher = more cleavage; in vitro, sequencing; the parent is a self-cleaving ribozyme
Variant G5C G30U A39C has a self-cleavage of 0.04. G5U A14G C15G A26U G29A A41U U43G showed a self-cleavage of 0.01. For G5A G17C G21A C31A, the self-cleavage was 0.13. In the case of G5A U9A A11C A14G C46U, the self-cleavage is reported as 0.02. For G5A G7C U34A, the self-cleavage was 0.05. For G5C G17U U32A, the self-cleavage was 0.05. G5A G21C G33A C45G C46U showed a self-cleavage of 0.02. Work on G5A G40C A41G yielded a self-cleavage of 0.04. Work on G5C U9C G35A A39U A41U yielded a self-cleavage of 0.01. Work on G5C A14C U20C U43C yielded a self-cleavage of 0.01. Work on G5A U9G G33A C45G yielded a self-cleavage of 0.03. In the case of G5C G7A C13G G21A G30C, the self-cleavage is reported as 0.08. G5C A11G U43C C45U showed a self-cleavage of 0.02. For G5C G27C G33C G35A, the self-cleavage was 0.02. With G5C G27U G35A G44U the self-cleavage was 0.05. For G5C G22C A39C, the self-cleavage was 0.01. Variant G5A G36C C45U has a self-cleavage of 0.02. G5C G29U G33A G44U showed a self-cleavage of 0.79. In the case of G5A U32G G33A, the self-cleavage is reported as 0.14. For G5C U32G U34G A41G, the self-cleavage was 0.02. Variant G5U A6G C46U has a self-cleavage of 0.11. G5C A6U G7U A14U G21U G40U showed a self-cleavage of 0.02. Variant G5U A6G C15U U20A G21C A41U has a self-cleavage of 0.01. With G5C C13U A26G G27A the self-cleavage was 0.02. With G5A G19U U32C the self-cleavage was 0.05. With G5C G27U U28C G35A the self-cleavage was 0.08. In the case of G5A G21A A39G, the self-cleavage is reported as 0.09. For G5C G27C C37A, the self-cleavage was 0.03. With G5U A16U G33A G36A the self-cleavage was 0.04. G5C A12G U34G G44A showed a self-cleavage of 0.02. With G5C G7A G44A C46A the self-cleavage was 0.02. Variant G5U A11G U34A has a self-cleavage of 0.01. Work on G5C C13G A26U G36U yielded a self-cleavage of 0.02. For G5U A12U A25U G36A C45A, the self-cleavage was 0.03. Work on G5U A11G C13A G19A U34C A39G G44A yielded a self-cleavage of 0. Work on G5C C15U C18U G29U yielded a self-cleavage of 0.04. Variant G5A G7U G29C A39U has a self-cleavage of 0.07. G5C C13U G36C A41U showed a self-cleavage of 0.03. G5C A12U G17C gave a self-cleavage of 0.14. In the case of G5A G21C A26U C31G G33C, the self-cleavage is reported as 0.03. For G5A G7A C46A, the self-cleavage was 0.38. G5C C18A C45U C46U showed a self-cleavage of 0.02. With G5C A16U G21A A24C G29C C37G the self-cleavage was 0.04. G5C A6U C13G G35C G44A C46G gave a self-cleavage of 0.02. With G5U A6G C10U C13G G30C G35U A39U the self-cleavage was 0.02. G5A G29A C37A C46A gave a self-cleavage of 0.13. G5C G7U G29C showed a self-cleavage of 0.04. With G5C A25U C31U U32C G35C C37U C45G the self-cleavage was 0.02. In the case of G5C A26U G40C, the self-cleavage is reported as 0.03. Variant G5A G7C A11C U20C C46A has a self-cleavage of 0.06. Variant G5C C37A C45G has a self-cleavage of 0.02. In the case of G5A U20G A39G, the self-cleavage is reported as 0.14. Variant G5C C15A A26G has a self-cleavage of 0.03. In the case of G5U A12U G22A G27A U28C C42U, the self-cleavage is reported as 0. Work on G5C U9G C13U U20G C46U yielded a self-cleavage of 0.03. Work on G5C G21U C42U yielded a self-cleavage of 0.04. With G5C G7A C37A the self-cleavage was 0.11. Variant G5C G19C U43A has a self-cleavage of 0.02. Work on G5A G22A G27A G30C A41U yielded a self-cleavage of 0.74. In the case of G5U A14G G35U, the self-cleavage is reported as 0.12. G5U A12C C13A G21C showed a self-cleavage of 0.03. In the case of G5C G22U G27A G29U, the self-cleavage is reported as 0.02. Variant G5C C15A G27A A41C has a self-cleavage of 0.1. G5C C13A G44C showed a self-cleavage of 0.06. With G5C U34G C46A the self-cleavage was 0.01. Work on G5C A11C A14G yielded a self-cleavage of 0.04. G5U A11C C15G C23A C46A showed a self-cleavage of 0.02. Work on G5U A6C C8G C10U A11G G35C U43A yielded a self-cleavage of 0.01. For G5C G7U C15U G35A, the self-cleavage was 0.37. For G5A G7U C23U C42U, the self-cleavage was 0.06. Work on G5C G17A C18A C45A yielded a self-cleavage of 0.01. Variant G5C A14U G21U G30A G36C has a self-cleavage of 0. In the case of G5C A16C U32A A39G, the self-cleavage is reported as 0. In the case of G5C C15U G21U, the self-cleavage is reported as 0.09. With G5A G30U U32A G33U the self-cleavage was 0.04. G5A G33U U34G A39G C46U showed a self-cleavage of 0.03. G5A U9G A11U C18U G19A gave a self-cleavage of 0.01. Variant G5C C10G G27U C37U A39C has a self-cleavage of 0.01. In the case of G5U A14U A16G U20C G29U, the self-cleavage is reported as 0.03. G5C C13U C15G G17U showed a self-cleavage of 0.01. In the case of G5U A11G A16C, the self-cleavage is reported as 0.04. Work on G5A U34G C46A yielded a self-cleavage of 0.04. G5C G7A C15A A25U U34G showed a self-cleavage of 0.2. With G5C C13G U20C the self-cleavage was 0.01. Work on G5C U20A C23A G27C G33A yielded a self-cleavage of 0.02. With G5A U43A C45G the self-cleavage was 0.04. G5A G7U A11G showed a self-cleavage of 0.03. For G5U A24G G27C, the self-cleavage was 0.09. Work on G5C C13A C23A yielded a self-cleavage of 0.1. Variant G5C C23U A26C has a self-cleavage of 0.05. G5A U9C G21U A39G showed a self-cleavage of 0.04. For G5C A6C G21C, the self-cleavage was 0.1. With G5A G21A G27A G30C the self-cleavage was 0.15. For G5U A6U C10A, the self-cleavage was 0.04. Variant G5C G27C C42G G44U has a self-cleavage of 0.05. Variant G5C A12G U32A A41U has a self-cleavage of 0.12. G5A G7C A25U C45A gave a self-cleavage of 0.03. Work on G5C A14G C15G U28G G33C U38C yielded a self-cleavage of 0.02. G5C G7A C8U gave a self-cleavage of 0.73. G5A G7C C18G A26G gave a self-cleavage of 0.04. G5C C10G C13U C31U U32C gave a self-cleavage of 0.02. G5U A16C C42A gave a self-cleavage of 0.07. G5C C13G C15U U32A gave a self-cleavage of 0.12. Work on G5C C37U A39G yielded a self-cleavage of 0.03. G5A G7U G17U G30A showed a self-cleavage of 0.1. G5A G19U G35U gave a self-cleavage of 0.22. Work on G5U A12G G29A yielded a self-cleavage of 0.03. G5C A6C G29A G36C C37A gave a self-cleavage of 0.11. With G5C C10A A12U A24U the self-cleavage was 0.02. G5A U9G G27A showed a self-cleavage of 0.24. In the case of G5C A6G C31A U34G C45U, the self-cleavage is reported as 0.03. For G5C C15U G21C C31G C37U, the self-cleavage was 0.08. With G5C G27A G29U C31A the self-cleavage was 0.05. For G5C A11U G29A G40U U43A, the self-cleavage was 0.02. G5C U9A C10U showed a self-cleavage of 0.03. In the case of G5C C31A C37U, the self-cleavage is reported as 0.03. For G5C A12U G27U G35U, the self-cleavage was 0.03. In the case of G5C G30C G35A, the self-cleavage is reported as 0.06. Variant G5U A6C U28G U38C has a self-cleavage of 0.06. For G5C G27A C45A, the self-cleavage was 0.31. With G5A U9A A12G G19A A39U the self-cleavage was 0.04. For G5C C15A G36A, the self-cleavage was 0.01. In the case of G5U A24C G27A C46G, the self-cleavage is reported as 0. With G5C A6C U9A G33U U38A the self-cleavage was 0.06. In the case of G5C G27A C31A, the self-cleavage is reported as 0.07. G5C C31A G40C gave a self-cleavage of 0. Variant G5U A11U A39G has a self-cleavage of 0. G5U A14C U28A U32G U34G showed a self-cleavage of 0.03. For G5C A12U A16C U20G, the self-cleavage was 0.03. G5A G7U G40U showed a self-cleavage of 0.48. For G5C A16C A39C, the self-cleavage was 0.04. For G5C C10A C18A, the self-cleavage was 0.05. In the case of G5C U32C G44U, the self-cleavage is reported as 0.03. G5C A12G C15A G30U gave a self-cleavage of 0.03. G5A U9G C10U G19A U20C gave a self-cleavage of 0.03. Work on G5U A11G A16C C31U yielded a self-cleavage of 0.04. For G5C C10A A16G G19U U43A, the self-cleavage was 0.01. Variant G5A U9A C10A A14U G17A G30U has a self-cleavage of 0.04. In the case of G5U A16G G30C C31G A41C, the self-cleavage is reported as 0. With G5A G19C A25G U38C the self-cleavage was 0.02. Work on G5C C13A G21U G35A C45U yielded a self-cleavage of 0.07. Work on G5C C8U G35A G40A yielded a self-cleavage of 0.2. G5U A6C G27C gave a self-cleavage of 0.11. In the case of G5U A24U G40C G44A C45A, the self-cleavage is reported as 0.01. In the case of G5U A14G G22A C45A, the self-cleavage is reported as 0.03. Work on G5U A11U U20G yielded a self-cleavage of 0.01. Variant G5A U9A G22A A25G has a self-cleavage of 0.14. In the case of G5C G21C A24U G36U C45U, the self-cleavage is reported as 1.39. With G5C C10G A25C C31G the self-cleavage was 0.02. For G5A G29U G40U, the self-cleavage was 0.13. G5A G36C A41U C46U gave a self-cleavage of 0.07. Work on G5U A14C G21U G40U yielded a self-cleavage of 0.03. G5A G21C G22U G27U A39U showed a self-cleavage of 0.03. Variant G5U A6U C8U C10A G44U C45A has a self-cleavage of 0.05. With G5C A25C G33A C37A U38A A39U the self-cleavage was 0.03. Work on G5U A12U A25U yielded a self-cleavage of 0.06. For G5C U9A G36C, the self-cleavage was 0.06. Work on G5C G19U G33A G36C yielded a self-cleavage of 0.01. For G5C G19U G21C C31G, the self-cleavage was 0.07. Variant G5C C8A A12U C15G C31A has a self-cleavage of 0.19. G5A G19A A25G C37U showed a self-cleavage of 0.02. Work on G5A G7C C13G C18A yielded a self-cleavage of 0.69. G5U A6C G19U C23U G27U showed a self-cleavage of 0.08. With G5C C23A C31U A41C U43A the self-cleavage was 0.14. With G5A G22A C42A the self-cleavage was 0.28. With G5U A14G G19U G35C U43A the self-cleavage was 0.02. G5C A12C C46G gave a self-cleavage of 0.03.

Source: the RNAGym collection of RNA variant scans (doi:10.7554/elife.90254)
